From the RNAGym collection of RNA variant scans (doi:10.1093/nar/gkz1192) come the findings set out here.

The source gives no read counts; variants with many changes may rest on few reads.

B1: CPEB3 Ribozyme (parent)
chain: UAACAGGGGGCCACAGCAGAAGCGUUCACGUCGCAGCCCCUGUCAGAUUCUGGUGAAUCUGCGAAUUCUGCUGUAUAUCUC

The variants in this series derive from B1. In words: self-cleavage, relative activity (ratio to wild type); higher = more cleavage; in vitro, sequencing. A digest of the protocol: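 Libraries of CPEB3 self-cleaving ribozyme mutants came from rounds of error-prone PCR and carried barcodes, which DNA sequencing matched to variants. In vitro transcription used T7 RNA polymerase at 37°C for 5 hours, with a further 15 min in DNase I before EDTA stopped the reaction; the ribozymes cleaved during both steps. The RNA was reverse transcribed with template switching and sequenced on Illumina. Relative activity is the cleaved/total read fraction of a variant divided by that of the unmutated ribozyme, averaged over three batches with at least 5 reads.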
With UAACAGGGGGCCACGGCAGAAGCGUCCACGUAGCAGCCCCUGUCAGAUUCUGGUGAACCUGCGAAUUCUGCUGCAUAUCUC [A15G U26C C32A U58C U74C], the self-cleavage worked out at 0.07.

As to UAACAGGGGGCCACGGCAGAAGCGUUCACGACGCAGCCCCUGUCAGGUUCUGGUAAGUCUGCGGAUUCUGCUGUGUAUCUC [A15G U31A A47G G55A A57G A64G A75G], the self-cleavage was 0.06.

For the variant UAACAGGGGGCCACGGCAGAAGCGUUCACGGCACAGCCCCUGUCUGAUUCUGGUGAAUCAGCGAAUUCUGCUGUAUAUCUC [A15G U31G G33A A45U U60A], the self-cleavage worked out at 0.12.

In the case of UAACAGGGGGCCACGGCAGAAGCGUUCACGCCGCAGCCCCUGUCAAAUUCUGGUGAAUCUGCGUAUUCUGCUGUAUAUCUC [A15G U31C G46A A64U], the self-cleavage is 0.2.

With UAACAGGGGGCCACGGCAGAAGCGUCCUCGUCGCUGCCCCUGUCAGAUUCUGGUGAAUCUGCGAAUUCUGCUGUAAAUCUC [A15G U26C A28U A35U U76A], the self-cleavage worked out at 0.31.

Turning to UAACAGGGGGCCACGGCAGAAGCGUUCACGUCGCAGCCCCAGUCAGAUUCUGGUGAAUCUGCGGAUUCUGCUGUAUAUCAC [A15G U41A A64G U80A], the self-cleavage was determined as 0.15.

Consider UAACAGGGGGCCACGGCAGAAGCGUCCGCGUCGCAGCCCCUGUCAGAUUCUGGUGAAUCUGCGAAUUCUGCUGUACAUCUC [A15G U26C A28G U76C], for which the self-cleavage is 0.15.

For the variant UAACAGGGGGCCACGGCAGAAGCGUCCACGUCGCAGCCCCUGUCUGAUUCAGGUGAAUCUGCGAUUUCUGCUGUAUAUCUC [A15G U26C A45U U51A A65U], the self-cleavage was 0.17.

As to UAACAGGGGGCCACGGCAGAAGCGUCCACGUCGCAGCCUCUGUCAGAUUCUGGUGAAUCUGCGAAUUCUGCUGUAUAUCUC [A15G U26C C39U], the self-cleavage was 0.35.

UAACAGGGGGCCACGGCAGAAGCGUCCACGUCGCAGCCCCUGACAGAUCCCGGUGGAUCUGCGAAUUCUGCUGUACAUCUC [A15G U26C U43A U49C U51C A56G U76C]: the self-cleavage is 0.1.

For the variant UAACAGGGGGCCACGGCAGAAGCGUUCACGACGCAGCCCCUGCCAGAUUCUGGUGAAUCUGCGAAUUCUGCUGAAUAUCUC [A15G U31A U43C U74A], the self-cleavage amounted to 0.44.

For UAACAGGGGGCCACGGCAGAAGCGUCCACGUCGCAGCCCCUGUCAGAUUCUGGUGGCUCUGCGAGUUCUGCUGUAUAUCUC [A15G U26C A56G A57C A65G], the self-cleavage is 0.09.

Consider UAACAGGGGGCCACGGCAGAAGCGUUCACGACACAGCCCCUGUCAGAUUCUGGUGAAUCUGCGAAUUCUGCUGUAUAUCUC [A15G U31A G33A], for which the self-cleavage worked out at 0.19.

Regarding UAACAGGGGGCCACGGCAGAAGCGUUCACGCCGCAGCCCCUGCCUGAUUCUGGUGAAUCUGCGAAUUCUGCUGUAUAUCUC [A15G U31C U43C A45U], the self-cleavage was 0.13.

UAACAGGGGGCCACGGCAGAAGCGUACACGUCGCAGCCCCUGCCAGAUCCUGGUGAAUCUGCGAAUUCUGCCGUAUAUCUC [A15G U26A U43C U49C U72C]: the self-cleavage was 0.11.

Take UAACAGGGGGCCACGGCAGAAGCGUUCACGUCGCAGCCCCAGUCAGGUUCUGGUGAAUCUGCGAAUUCUGCUGUAUAUCUC [A15G U41A A47G]: the self-cleavage came to 0.36.

Turning to UAACAGGGGGCCACGGCAGAAGCGUUCACGCCGCAGCGCCUGUCAGAUUCUGGUGAAUCUGCGAAUUCCGCUGUGUAUCUC [A15G U31C C38G U69C A75G], the self-cleavage worked out at 0.39.

With UAACAGGGGGCCACGGCAGAAGCGUUCACGACGCAGCCCCUGUCAGAUUCUGGUGAAUCCGCGAAUUCUGCAGUAUAUCUC [A15G U31A U60C U72A], the self-cleavage was 0.15.

On to UAACAGGGGGCCACGGCAGAAGCGUACACGUCGCAGCCCCUGUCAGAUUCAGGUGGAUCUGCGAAUUCUGCUGUAUAUCUC [A15G U26A U51A A56G], for which the self-cleavage turned out to be 0.38.

With UAACAGGGGGCCACGGCAGAAGCGUUCACGGCGCAGCCCCUGUCAGAUUCCGGUGAAUCUGCGAAUUCUGCAGUAUAUCUC [A15G U31G U51C U72A], the self-cleavage is 0.45.

Take UAACAGGGGGCCACGGCAGAAGCGUCCUCGUCGCAGCCCCUGUCAGAUUCUGGAGUAUCUGCGGAUUCUGCUGUAUAUCUC [A15G U26C A28U U54A A56U A64G]: the self-cleavage amounted to 0.17.

For UAACAGGGGGCCACGGCAGAAGCGUUCACGUCGCAGCCCCAGUCAGAUUCUGGUGUAUCAGCGAAUUCUGCUGUAUAUCCC [A15G U41A A56U U60A U80C], the self-cleavage was 0.09.

For UAACAGGGGGCCACGGCAGAAGCGUUCACGCCACAGUCCCUGUCAGAUUCUGGUGAAUCUGCGAAUUCUGCUGUAUAUCUC [A15G U31C G33A C37U], the self-cleavage turned out to be 0.25.

For UAACAGGGGGCCACGGCAGAAGCGUACACGUCGCAGCCCCUGUCAGAUUCUGGAGGAUCUGCGAAUUCUGCUGUGUAUCUC [A15G U26A U54A A56G A75G], the self-cleavage was 0.26.

For UAACAGGGGGCCACGGCAGAAGCGUUCACGCCGCAGCCCCUGUCAGAUUCUGGAGAAUCUGCGGAUUCUGCAGUAUAUCUC [A15G U31C U54A A64G U72A], the self-cleavage is 0.1.

As for UAACAGGGGGCCACGGCAGAAGCGUCCACGUUGCAGCCCCUGUCAGAUUCUGGUGAAUCUGCGAAUUCUGCAGUAUAGCUC [A15G U26C C32U U72A U78G], the self-cleavage was found to be 0.04.

Consider UAACAGGGGGCCACGGCAGAAGCGUUCACGACGCAGCCCCUGCCAGAUUCUGGUGAAUCUGCGAAUUCUGCUGUAUAUCUC [A15G U31A U43C], for which the self-cleavage came out at 0.44.

UAACAGGGGGCCACGGCAGAAGCGUCCACGUCGCAGCCCCUGUCAGAUUCUGGUGAAUCCGCGAACUCUGCUGCAUAUCCC [A15G U26C U60C U66C U74C U80C]: the self-cleavage amounted to 0.07.

Consider UAACAGGGGGCCACGGCAGAAGCGUCCACGUCGCAGCCCCUGUCCGAUUCUGGUGAGUCUGCGAAUCCUGCUGUGUAUCUC [A15G U26C A45C A57G U67C A75G], for which the self-cleavage came to 0.07.

In the case of UAACAGGGGGCCACGGCAGAAGCGUCCACGUCGCAGCCCCUGUCAGAUUCUGGUGACUCUGCGAAUUCUGCAGUAUAUCUC [A15G U26C A57C U72A], the self-cleavage worked out at 0.13.

On to UAACAGGGGGCCACGGCAGAAGCGUUCACGACGCAGCCCCUGUCAGAUUCUGGUGAGUCUGCGAAUUCUGCCGUAUAUCUC [A15G U31A A57G U72C], for which the self-cleavage worked out at 0.75.

For the variant UAACAGGGGGCCACGGCAGAAGCGUUCACGACGCAGCCACUGUCAGAUUCUGGUGAAUCUGCGAAUUCUGCUGUAUAUCUC [A15G U31A C39A], the self-cleavage came to 0.2.

For UAACAGGGGGCCACGGCAGAAGCGUUCACGACGCCGCCCCUGUCAGAUUCUGGUGAAUCUGCGAAUUCUGCAGUAUAUCUC [A15G U31A A35C U72A], the self-cleavage amounted to 0.14.

Turning to UAACAGGGGGCCACGGCAGAAGCGUCCAUGUCGCAGCCCCUGUCAGAUUCUGGUGAAUCUGGGAAUUCUGCUGUAUAUCUC [A15G U26C C29U C62G], the self-cleavage was 0.11.
